# Measurements published in the supplement of paper PMC3334620.
# Whole data set: some 33,000 sequences, median “E-score (-0.5 to 0.5)” near -0.035, cut for the highest 2% near 0.34. The list shows a part of the results.
# Target: T1, Mot3 (UniProt P54785)
# T1 sequence: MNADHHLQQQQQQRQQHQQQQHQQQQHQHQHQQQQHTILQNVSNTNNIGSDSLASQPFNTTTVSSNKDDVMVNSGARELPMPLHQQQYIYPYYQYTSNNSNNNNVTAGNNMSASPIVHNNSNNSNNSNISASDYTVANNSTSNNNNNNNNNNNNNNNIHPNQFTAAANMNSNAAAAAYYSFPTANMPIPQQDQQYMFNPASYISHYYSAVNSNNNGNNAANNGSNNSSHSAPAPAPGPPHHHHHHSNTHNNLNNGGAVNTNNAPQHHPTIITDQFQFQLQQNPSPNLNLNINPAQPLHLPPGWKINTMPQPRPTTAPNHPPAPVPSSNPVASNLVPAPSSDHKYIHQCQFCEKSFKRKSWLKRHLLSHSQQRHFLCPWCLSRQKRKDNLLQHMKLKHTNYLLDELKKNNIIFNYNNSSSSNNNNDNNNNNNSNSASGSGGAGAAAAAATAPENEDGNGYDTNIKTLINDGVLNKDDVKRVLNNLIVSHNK
# Assay: PBM E-score (8-mer binding enrichment) (E-score (-0.5 to 0.5)); higher = stronger / more preferred TF binding; most listed sequences are background and not binding sites
# Conditions: protein concentration: 200 nM; construct: GST-full length
# In short: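 Yeast transcription factors, full-length or as DNA-binding domains, were expressed with a GST tag using PURExpress in vitro transcription/translation. At about 100-200 nM they were applied to universal all-10-mer Agilent arrays, double-stranded by primer extension on fresh or once-stripped slides. Fluorescent anti-GST detected bound protein, and masliner normalised the scans. E-scores for ungapped eight-base words, pooled with reverse complements, came from the Universal PBM Analysis Suite.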
row,Sequence,PBM E-score
1,ATCGCTCG,-0.231
2,AAGCCCCG,0.0651
3,AATTTGAC,0.0529
4,GACTCAGA,-0.197
5,CAGACCAC,-0.109
6,TACCGAGA,-0.141
7,GCAGAGAC,-0.312
8,GAGTACGC,-0.0748
9,TTGAGCAA,-0.0983
10,GAGGTTGA,-0.187
11,CGGTTAAA,0.0445
12,ACTGCATC,-0.107
13,CCTAGCGA,-0.225
14,ATTATAAA,0.0362
15,TCCAGAGA,-0.156
16,CCGATACC,-0.0199
17,TCAATAAA,-0.00436
18,AGAGGACC,-0.226
19,CTTTTGGA,-0.124
20,GGTTTTGA,-0.00186
21,GGTTCAGA,-0.182
22,AGTGCGAT,-0.00843
23,TCTGCCCA,-0.168
24,ACCATCTC,-0.114
25,CCCTCACA,-0.147

row,Sequence,PBM E-score
1,AACCTTGG,-0.0639
2,CGCATTAA,0.151
3,CCTCCTGC,-0.096
4,ACCACCGA,-0.1
5,CGACAAAA,0.043
6,CTGGACAA,-0.0433
7,CAACCCAG,-0.0379
8,ATCTCCTG,-0.0112
9,CCCACCGC,-0.157
10,GACCTCAA,-0.166
11,CAGCGAAG,-0.0546
12,TCTCTAAA,-0.133
13,GCGGCGCC,-0.0759
14,CAACCGAG,-0.178
15,GCACGCCA,0.00827
16,ATTGTTCG,0.159
17,GCTCGAAA,-0.286
18,AAAGAACT,0.0647
19,GCATGGTA,0.054
20,CTTCACGA,-0.268
21,AGTATCGC,-0.102
22,ATTCAGGA,0.0179
23,CCATATGA,-0.138
24,ATAGAGGC,0.00663
25,TATTCGCA,0.0876

row,Sequence,PBM E-score
1,CGAACAAA,0.0491
2,GTATCGAA,0.0527
3,CTTTTCGA,-0.07
4,ACTATTTG,0.137
5,AGTGGACG,-0.028
6,GACCCCGC,-0.219
7,AACCTGTA,0.222
8,CTTGGCTA,-0.158
9,ACGTTGCA,-0.0297
10,GAAGACGA,-0.211
11,ATTCGAAT,0.149
12,ATGCCGAA,-0.137
13,CCACCCTC,-0.261
14,CCCAGGAA,0.249
15,AATGACTG,-0.118
16,AACTGAGG,-0.0443
17,GGTGAACA,0.0476
18,AGCAATTA,0.115
19,CCTGGACG,-0.148
20,AACTAGGT,0.119
21,ACGTTCCA,0.0401
22,ACGCAATC,0.0409
23,CGGAGGCA,0.375
24,CGACAGAC,-0.212
25,GTAACTAC,0.245

row,Sequence,PBM E-score
1,AAATCTCT,-0.0655
2,GCGCCTTA,0.31
3,AACCACAA,0.084
4,CGAAGCCA,-0.252
5,AGGTACAA,0.363
6,ATTCCGAC,-0.0564
7,CACCAATA,0.0883
8,GCAATTCA,0.151
9,GAGCCGTA,0.0271
10,CGCACGTC,-0.119
11,TAGAGTGA,-0.0936
12,CATGTAAC,0.382
13,ACCTGCTC,0.166
14,CCCCACTC,-0.272
15,AGCTGGCG,-0.197
16,ACCAGATA,0.0595
17,AGACTAAT,-0.111
18,TATGCGAA,-0.0122
19,CGTTGTAG,0.145
20,AACGCTTA,-0.0517
21,GACATCTC,-0.202
22,AAGAGGTA,-0.073
23,ACCGTCAC,-0.261
24,CTTAGGCA,0.444
25,AAGTCTAT,0.027

row,Sequence,PBM E-score
1,CATTTGGG,-0.173
2,CAAAGGAA,0.415
3,CTGGGGTC,-0.0886
4,CGCTATTA,0.168
5,AGGTATCG,-0.0102
6,GCAACGGC,-0.00677
7,CTTTCGAC,-0.0418
8,ATACGGGG,-0.323
9,GGCACGTA,0.363
10,AGTCGGAG,-0.136
11,AGCTGGCA,-0.219
12,AGGGGGTA,-0.344
13,CCTTGCGA,-0.138
14,ATCAGAAC,-0.0851
15,AAACTGGC,0.0529
16,ACACATTA,0.215
17,ACGCATAA,0.185
18,GGCCCTCA,-0.257
19,AGCCCTGG,-0.313
20,GCCACTAC,-0.155
21,ACAAAGCT,0.178
22,GTTTGATA,-0.0471
23,CGCAATTA,0.00607
24,AAAGTACG,0.0187
25,GTCATACA,0.0967

row,Sequence,PBM E-score
1,AATAGTAG,0.0511
2,TAGCCAAA,-0.0612
3,ATATTGCA,-0.0489
4,TGACCCAA,-0.0363
5,CTCTAGTC,-0.292
6,ATTATACC,0.0793
7,CAACCGTC,-0.159
8,ACTTTCAC,0.0608
9,CCTAGCGC,0.0285
10,AACACACT,0.22
11,AGTGCATG,0.105
12,GCCTTCAA,0.329
13,ATATCGCC,-0.0398
14,GAGGGATA,-0.266
15,CTAACCCC,-0.216
16,ACACTCCA,-0.141
17,GGATCTAA,-0.135
18,ATTACGTG,0.383
19,CGCTTACG,-0.0536
20,CCATTGAA,0.0844
21,CTATCAGC,-0.0433
22,GTCGGCTA,-0.0889
23,GGATCGTA,-0.216
24,TACGGGCA,0.174
25,ACGCACAT,0.066

row,Sequence,PBM E-score
1,ATAGATAG,0.102
2,CTCGCGAC,-0.296
3,CCAAGACA,0.0306
4,AGTCTTTA,0.0546
5,AGTATCAT,-0.0563
6,CTTGACTA,0.0311
7,AGCTGGAA,-0.29
8,ATTCCTCA,0.121
9,ACACGTCA,0.286
10,CCGAAACA,-0.0118
11,AACTAGCG,-0.0354
12,AATCTGTG,0.0694
13,AGGCGTGG,-0.343
14,AACCAGTC,-0.0431
15,CCAAGCAG,-0.132
16,CTCATGAC,-0.146
17,AGACGGCG,-0.248
18,GCAGCCAA,-0.0882
19,CATGGGGC,-0.0528
20,CAGAAGTA,-0.0319
21,CTCGGCTC,-0.309
22,AGGTAAGC,0.16
